# Results from paper PMC4336329 (PLoS ONE, 2015).
# Hit rate of the full screen: of about 310,000 compounds, about 14,000 (4.5%) showed an effect of 50% or more. Effects have a minus sign here. This is one part of the list.
# Biological target: human ether-à-go-go-related gene (hERG) potassium channel (human, UniProt Q12809)
# Assay: primary screen, population patch clamp on CHO cells stably expressing hERG
# 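Note: peak tail current of the secondary pulse compared with the same well before compound.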
# human ether-à-go-go-related gene (hERG) potassium channel, sequence (Q12809 whole entry, looked up): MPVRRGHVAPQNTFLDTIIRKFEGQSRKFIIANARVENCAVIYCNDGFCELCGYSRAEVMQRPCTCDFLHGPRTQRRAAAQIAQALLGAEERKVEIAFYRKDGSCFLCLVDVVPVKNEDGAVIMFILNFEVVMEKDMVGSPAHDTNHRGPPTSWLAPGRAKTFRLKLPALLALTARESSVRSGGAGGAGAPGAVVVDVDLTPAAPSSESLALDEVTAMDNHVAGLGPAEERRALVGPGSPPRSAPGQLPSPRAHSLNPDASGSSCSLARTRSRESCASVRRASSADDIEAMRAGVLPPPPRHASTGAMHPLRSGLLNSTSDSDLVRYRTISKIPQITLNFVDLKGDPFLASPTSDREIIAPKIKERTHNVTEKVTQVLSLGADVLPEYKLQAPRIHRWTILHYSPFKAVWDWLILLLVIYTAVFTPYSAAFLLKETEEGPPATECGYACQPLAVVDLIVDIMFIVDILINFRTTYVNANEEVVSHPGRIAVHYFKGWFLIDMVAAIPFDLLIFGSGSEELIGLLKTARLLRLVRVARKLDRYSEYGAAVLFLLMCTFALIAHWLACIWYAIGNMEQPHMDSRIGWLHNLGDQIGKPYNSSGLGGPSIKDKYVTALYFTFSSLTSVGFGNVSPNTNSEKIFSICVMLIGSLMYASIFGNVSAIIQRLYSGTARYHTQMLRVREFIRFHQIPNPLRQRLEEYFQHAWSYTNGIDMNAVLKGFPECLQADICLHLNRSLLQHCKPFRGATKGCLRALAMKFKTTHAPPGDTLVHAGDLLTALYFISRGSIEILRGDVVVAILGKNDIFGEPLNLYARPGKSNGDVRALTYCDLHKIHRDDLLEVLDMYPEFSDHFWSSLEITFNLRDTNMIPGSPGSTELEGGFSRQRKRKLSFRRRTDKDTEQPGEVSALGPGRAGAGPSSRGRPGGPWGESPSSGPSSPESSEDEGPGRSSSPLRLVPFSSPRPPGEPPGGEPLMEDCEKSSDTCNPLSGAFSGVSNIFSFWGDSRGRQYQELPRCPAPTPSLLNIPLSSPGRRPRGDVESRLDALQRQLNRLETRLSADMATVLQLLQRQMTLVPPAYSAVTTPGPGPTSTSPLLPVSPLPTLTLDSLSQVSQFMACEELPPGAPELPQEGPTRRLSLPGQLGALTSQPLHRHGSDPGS
row,SMILES,"hERG current change (%, negative = inhibition) at 10uM"
1,O=C(NC(CCl)c1ccccc1)c1ccc(Cl)cc1 (stereo not drawn),-10.7%
2,COc1cccc(-c2cc(=O)c3cc(NC(=O)c4ccc(N(C)C)cc4)ccc3[nH]2)c1,16.2%
3,CCCCC1C2C(=O)N(c3ccc(C)cc3)C(=O)C2ON1c1ccccc1 (stereo not drawn),3.04%
4,CN(CCCNC(=O)c1cc2c(=O)[nH]c3ccccc3c2n1C)Cc1ccccc1,-29%
5,CCOC(=O)c1sc(Nc2ccc(Br)cc2)nc1C,13.7%
6,Clc1ccc(CN(Cc2ccc(Cl)cc2)c2nn[nH]n2)cc1,-3.21%
7,O=C(c1cccs1)N(Cc1nc2sc3c(c2c(=O)[nH]1)CCCC3)C1CCCC1,-9.55%
8,COc1ccc(C(CNC(=O)COc2ccc(Br)cc2F)N2CCCC2)cc1 (stereo not drawn),-78.6%
9,CCc1sc(C(=O)NCc2ccco2)cc1Br,-1.93%
10,Cc1c(C(=O)N2CCOCC2)c(S(=O)(=O)Nc2ccc(C(C)C)cc2)c(C)n1C,8.96%
11,COc1ccc(OCCC(=O)Nc2cc(C)on2)cc1,4.61%
12,COC(=O)c1[nH]c2cc(C)ccc2c1NC(=O)CN1CCOCC1,-14.2%
13,CC(C)Cc1nnc(NC(=O)c2ccc3c(c2)OCCO3)s1,-6.6%
14,CC(C)(C)c1nnc2sc(SCC(=O)N3CCCc4ccccc43)nn2c1=O,-43.2%
15,Cc1ccc(OCCC(=O)Nc2ccc(S(=O)(=O)N3CCCC3)cc2)cc1,-6.23%
16,CCOc1ccc(N2CC(C(=O)NCc3ccc4c(c3)OCO4)CC2=O)cc1 (stereo not drawn),-27%
17,COc1ccc2nc(NC(=O)C3CCCN(S(=O)(=O)c4cccc5nonc45)C3)sc2c1 (stereo not drawn),14.2%
18,COc1ccc(CCNC(=O)CN(c2ccc(OC)c(OC)c2)S(=O)(=O)c2ccc(C)cc2)cc1,8.72%
19,COc1ccc(-c2nnc(SC(C(=O)c3c[nH]c4ccccc34)c3ccccc3)n2N)cc1OC (stereo not drawn),2.03%
20,CCC1(c2ccccc2)NC(=O)N(CC(=O)NNC(=O)c2ccoc2C)C1=O (stereo not drawn),16.3%
21,Nc1ccnc(=O)[nH]1,16.3%

row,SMILES,"hERG current change (%, negative = inhibition) at 10uM"
1,CCNC(=S)N(C)CCc1cc2c(c(OC)c1C=C1C(=O)N(C)C(=O)N(C)C1=O)OCO2,20.5%
2,Cc1cc(C(=O)OCC(=O)Nc2ccc(F)cc2)c(C)o1,-9.88%
3,CCC(=NCc1ccco1)c1c(C(F)(F)F)[nH]n(-c2nc3ccccc3s2)c1=O,-2.61%
4,CCOCCn1c(=NC(=O)c2cc3ccccc3oc2=O)sc2cc(S(N)(=O)=O)ccc21,-44.4%
5,O=C1NCCCCC1NS(=O)(=O)c1ccccc1 (stereo not drawn),31.7%
6,Cc1cc(/C=N/n2cnnc2)c(C)n1-c1ccc(OCc2ccc(Cl)cc2Cl)cc1,16.4%
7,CC1CC(=O)C2=C(C1)Nc1ccccc1N=C2 (stereo not drawn),-4.46%
8,Cn1c(CCNC(=O)c2ccco2)nc2cc([N+](=O)[O-])ccc21,-26%
9,COc1cc(S(=O)(=O)N2CCN(c3ccccc3F)CC2)c(OC)cc1Cl,-3.76%
10,CCN1CCN(S(=O)(=O)c2ccc(Cl)c(C(=O)Nc3ccc(OC(F)F)cc3)c2)CC1,-70.4%
11,O=C(O)c1ccc(S(=O)(=O)c2ccc(Sc3ccc(C(=O)O)c(C(=O)O)c3)cc2)cc1,23.3%
12,CCn1c(COc2ccccc2C(N)=O)nc2ccccc21,12.2%
13,O=C(Cc1ccc(Cl)cc1)Nc1ccccc1C(=O)N1CCCCC1,-8.16%
14,Cc1ccccc1Cn1nc(C)c(NC(=O)c2nc3n(n2)C(C(F)F)CC(C)N3)c1C (stereo not drawn),0.0862%
15,CCOc1ccc(/C=N/Nc2cc(C)nc(N3CCOCC3)n2)cc1,3.47%
16,Cc1ccccc1-n1ncc2c1CC(C)(C)CC2NC(=O)CCN1CCCCC1=O (stereo not drawn),13.2%
17,CCOP(=O)(OCC)C(Nc1cccc([N+](=O)[O-])c1)c1ccc(OC)cc1 (stereo not drawn),-5.2%
18,O=C(COC(=O)c1cncc(Br)c1)NCc1ccc(Cl)cc1,14.8%
19,CCC(C)c1ccccc1NC(=O)CN(C)CC(=O)Nc1ccccc1SC (stereo not drawn),1.51%
20,O=C(c1ccc(S(=O)(=O)NCc2ccco2)cc1)N1CCN(c2ccc(F)cc2)CC1,-31.5%
21,Cc1nn(CC(=O)N2CCC(C)CC2)c(=O)c2cccn12,24.1%
